# Article PMC9911399, “Two distinct binding modes provide the RNA-binding protein RbFox with extraordinary sequence specificity”
# Positions count from the first letter of the chain named. The list shows a part of the results.
# B1: AAUUUUC (DNA:RNA)
# RNA: GGGAGACCGGAAUUCAGAUUGUCCAAUUUUCUUAAAUCCCGUCGUAGCCACCA
# DNA 1: CAATCTGAATTCCGGTCTCCC
# DNA 2: TGGTGGCTACGACGGGATT
# B2: GUAAUAA (DNA:RNA)
# RNA: B1 RNA with A25G, A26U, U27A, U28A, U30A, C31A
# DNA 1: CAATCTGAATTCCGGTCTCCC
# DNA 2: TGGTGGCTACGACGGGATT
# B3: GCGGUAG (DNA:RNA)
# RNA: B1 RNA with A25G, A26C, U27G, U28G, U30A, C31G
# DNA 1: CAATCTGAATTCCGGTCTCCC
# DNA 2: TGGTGGCTACGACGGGATT
# B4: AUCAGAG (DNA:RNA)
# RNA: B1 RNA with A26U, U27C, U28A, U29G, U30A, C31G
# DNA 1: CAATCTGAATTCCGGTCTCCC
# DNA 2: TGGTGGCTACGACGGGATT
# B5: GGACAAG (DNA:RNA)
# RNA: GGGAGACCGGAAUUCAGAUUGUCCGGACAAGUUAAAUCCCGUCGUAGCCACCA
# DNA 1: CAATCTGAATTCCGGTCTCCC
# DNA 2: TGGTGGCTACGACGGGATT
# B6: ACUUAUA (DNA:RNA)
# RNA: B1 RNA with A26C, U29A, C31A
# DNA 1: CAATCTGAATTCCGGTCTCCC
# DNA 2: TGGTGGCTACGACGGGATT
# B7: UAGGAUU (DNA:RNA)
# RNA: B1 RNA with A25U, U27G, U28G, U29A, C31U
# DNA 1: CAATCTGAATTCCGGTCTCCC
# DNA 2: TGGTGGCTACGACGGGATT
# B8: UCGCUUA (DNA:RNA)
# RNA: B1 RNA with A25U, A26C, U27G, U28C, C31A
# DNA 1: CAATCTGAATTCCGGTCTCCC
# DNA 2: TGGTGGCTACGACGGGATT
# B9: CGUGCUG (DNA:RNA)
# RNA: B1 RNA with A25C, A26G, U28G, U29C, C31G
# DNA 1: CAATCTGAATTCCGGTCTCCC
# DNA 2: TGGTGGCTACGACGGGATT
# B10: UUACCCC (DNA:RNA)
# RNA: B5 RNA with G25U, G26U, A29C, A30C, G31C
# DNA 1: CAATCTGAATTCCGGTCTCCC
# DNA 2: TGGTGGCTACGACGGGATT
# B11: GCCGGAA (DNA:RNA)
# RNA: B5 RNA with G26C, A27C, C28G, A29G, G31A
# DNA 1: CAATCTGAATTCCGGTCTCCC
# DNA 2: TGGTGGCTACGACGGGATT
# B12: CCCAAUU (DNA:RNA)
# RNA: B1 RNA with A25C, A26C, U27C, U28A, U29A, C31U
# DNA 1: CAATCTGAATTCCGGTCTCCC
# DNA 2: TGGTGGCTACGACGGGATT
# B13: CACACCA (DNA:RNA)
# RNA: B1 RNA with A25C, U27C, U28A, U29C, U30C, C31A
# DNA 1: CAATCTGAATTCCGGTCTCCC
# DNA 2: TGGTGGCTACGACGGGATT
# B14: GUGACAG (DNA:RNA)
# RNA: B5 RNA with G26U, A27G, C28A, A29C
# DNA 1: CAATCTGAATTCCGGTCTCCC
# DNA 2: TGGTGGCTACGACGGGATT
# B15: AGCAGUC (DNA:RNA)
# RNA: B1 RNA with A26G, U27C, U28A, U29G
# DNA 1: CAATCTGAATTCCGGTCTCCC
# DNA 2: TGGTGGCTACGACGGGATT
# B16: GAUACUA (DNA:RNA)
# RNA: B1 RNA with A25G, U28A, U29C, C31A
# DNA 1: CAATCTGAATTCCGGTCTCCC
# DNA 2: TGGTGGCTACGACGGGATT
# B17: UCGAUGA (DNA:RNA)
# RNA: B1 RNA with A25U, A26C, U27G, U28A, U30G, C31A
# DNA 1: CAATCTGAATTCCGGTCTCCC
# DNA 2: TGGTGGCTACGACGGGATT
# B18: AAGGGUG (DNA:RNA)
# RNA: B1 RNA with U27G, U28G, U29G, C31G
# DNA 1: CAATCTGAATTCCGGTCTCCC
# DNA 2: TGGTGGCTACGACGGGATT
# B19: AUUAAGA (DNA:RNA)
# RNA: B1 RNA with A26U, U28A, U29A, U30G, C31A
# DNA 1: CAATCTGAATTCCGGTCTCCC
# DNA 2: TGGTGGCTACGACGGGATT
# B20: AGCCCAC (DNA:RNA)
# RNA: B5 RNA with G25A, A27C, A29C, G31C
# DNA 1: CAATCTGAATTCCGGTCTCCC
# DNA 2: TGGTGGCTACGACGGGATT
# B21: GGAUCUC (DNA:RNA)
# RNA: B1 RNA with A25G, A26G, U27A, U29C
# DNA 1: CAATCTGAATTCCGGTCTCCC
# DNA 2: TGGTGGCTACGACGGGATT
# B22: UACGGGA (DNA:RNA)
# RNA: B1 RNA with A25U, U27C, U28G, U29G, U30G, C31A
# DNA 1: CAATCTGAATTCCGGTCTCCC
# DNA 2: TGGTGGCTACGACGGGATT
# B23: UCUUUCG (DNA:RNA)
# RNA: B1 RNA with A25U, A26C, U30C, C31G
# DNA 1: CAATCTGAATTCCGGTCTCCC
# DNA 2: TGGTGGCTACGACGGGATT
# B24: CUGGACA (DNA:RNA)
# RNA: B5 RNA with G25C, G26U, A27G, C28G, A30C, G31A
# DNA 1: CAATCTGAATTCCGGTCTCCC
# DNA 2: TGGTGGCTACGACGGGATT
# B25: UGCUAAG (DNA:RNA)
# RNA: B5 RNA with G25U, A27C, C28U
# DNA 1: CAATCTGAATTCCGGTCTCCC
# DNA 2: TGGTGGCTACGACGGGATT
# B26: AAUAUAU (DNA:RNA)
# RNA: B1 RNA with U28A, U30A, C31U
# DNA 1: CAATCTGAATTCCGGTCTCCC
# DNA 2: TGGTGGCTACGACGGGATT
# B27: AGGCCGG (DNA:RNA)
# RNA: B5 RNA with G25A, A27G, A29C, A30G
# DNA 1: CAATCTGAATTCCGGTCTCCC
# DNA 2: TGGTGGCTACGACGGGATT
# B28: CGUGUUA (DNA:RNA)
# RNA: B1 RNA with A25C, A26G, U28G, C31A
# DNA 1: CAATCTGAATTCCGGTCTCCC
# DNA 2: TGGTGGCTACGACGGGATT
# B29: AUAGUGC (DNA:RNA)
# RNA: B1 RNA with A26U, U27A, U28G, U30G
# DNA 1: CAATCTGAATTCCGGTCTCCC
# DNA 2: TGGTGGCTACGACGGGATT
# B30: CCUCACC (DNA:RNA)
# RNA: B1 RNA with A25C, A26C, U28C, U29A, U30C
# DNA 1: CAATCTGAATTCCGGTCTCCC
# DNA 2: TGGTGGCTACGACGGGATT
# B31: CCUCGGA (DNA:RNA)
# RNA: B1 RNA with A25C, A26C, U28C, U29G, U30G, C31A
# DNA 1: CAATCTGAATTCCGGTCTCCC
# DNA 2: TGGTGGCTACGACGGGATT
# Molecular target: T1, RBFOX1 RRM RbFoxmut (Fox-RRM*) (Homo sapiens, UniProt Q9NWB1 109-208, R118D;E147R;N151S;E152T)
# T1 sequence: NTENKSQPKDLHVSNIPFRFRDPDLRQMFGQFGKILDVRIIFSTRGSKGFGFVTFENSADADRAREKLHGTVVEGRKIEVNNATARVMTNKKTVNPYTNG
# Assay: EMSA; HiTS-Eq, 1 nM pool, 10 min; buffer printed only for the single-RNA assays: 10 mM Tris pH 7.5, 150 mM NaCl, 3.4 mM EDTA, 0.001% NP-40, 30 C
# Settings: tags: His6 N-terminal (pET28a); label: 5' 32P
# In short: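 Relative association constants, normalised to the cognate motif, were derived by comparing read counts of each RNA species with those of the control reaction. The RNA sequenced was the free fraction, separated by 8% native PAGE after a 10 min equilibration in 50 µL of 1 nM 5′-radiolabelled RNA (7 randomized nucleotides) with increasing concentrations of purified wild-type or mutant RbFox RRM.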
row,Binder,binding signal
1,B1,0.0604 KA relative to UGCAUGU
2,B2,0.13 KA relative to UGCAUGU
3,B3,0.127 KA relative to UGCAUGU
4,B4,0.127 KA relative to UGCAUGU
5,B5,0.0687 KA relative to UGCAUGU
6,B6,0.147 KA relative to UGCAUGU
7,B7,0.0707 KA relative to UGCAUGU
8,B8,0.154 KA relative to UGCAUGU
9,B9,0.126 KA relative to UGCAUGU
10,B10,0.0534 KA relative to UGCAUGU
11,B11,0.0679 KA relative to UGCAUGU
12,B12,0.0634 KA relative to UGCAUGU
13,B13,0.0781 KA relative to UGCAUGU
14,B14,0.0828 KA relative to UGCAUGU
15,B15,0.0754 KA relative to UGCAUGU
16,B16,0.0759 KA relative to UGCAUGU

row,Binder,binding signal
1,B17,0.07 KA relative to UGCAUGU
2,B18,0.143 KA relative to UGCAUGU
3,B19,0.1 KA relative to UGCAUGU
4,B20,0.0751 KA relative to UGCAUGU
5,B21,0.0701 KA relative to UGCAUGU
6,B22,0.0657 KA relative to UGCAUGU
7,B23,0.0501 KA relative to UGCAUGU
8,B24,0.0347 KA relative to UGCAUGU
9,B25,0.0956 KA relative to UGCAUGU
10,B26,0.0999 KA relative to UGCAUGU
11,B27,0.0906 KA relative to UGCAUGU
12,B28,0.126 KA relative to UGCAUGU
13,B29,0.129 KA relative to UGCAUGU
14,B30,0.0516 KA relative to UGCAUGU
15,B31,0.0795 KA relative to UGCAUGU
